The whole screen tested about 370,000 compounds, of which about 500 (0.14%) were called active. This list was built around the results that the source calls inconclusive (neither active nor inactive); the mix of calls is not that of the screen. Calls come from the whole dose curve; as a rule, active = well fitted activation curve with a large enough effect; inconclusive = small, poorly fitted or top-dose-only effect; inactive = no such curve, though single readings can be large or run the other way. No potency is given beside an inconclusive call; the fits are too rough.
Test: qHTS of alpha-syn Inhibitors; note: nearly all actives have a fitted effect of over 65% in size; for growth rescue (activation): % of control where 0% means no effect
Settings: Yeast expressing alpha-synuclein, BacTiter-Glo, 24 h; Potency: growth rescue unless noted; growth rescue (activation): at 46.1 µM (top of the series) unless noted
Method in brief: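 Rescue of yeast growth: cells expressing toxic alpha-synuclein, induced in galactose at OD600 0.02, incubated with compound 24 h at 30 C. ATP luminescence quantified growth; inhibitors of toxicity appear as activators.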
Potency is the fitted concentration of half-maximal effect; tags give direction and shape of the fitted curve.

Compound | Potency | growth rescue (activation)
CC(=O)c1cccc(N(C(=O)Cn2nnc3ccccc32)C(C(=O)NC2CCCCC2)c2cn(C)nc2C)c1 (stereo not given) | inconclusive [activator, single point] | –
Cc1nn(CC(C)C)c(Cl)c1C(=O)N(C)CC(=O)Nc1ccc(Cl)cc1 | inconclusive [activator, single point] | –
C=C1C(=O)[C@]23C[C@H]1CCC2[C@]1(C)C(=O)CC[C@@](C)(C(=O)O)C1C[C@@H]3O (stereo not given in full) | active: 15.8 µM | –
CCOC(=O)C(=Cc1ccc(Br)cc1)C(=O)OCC | inconclusive [activator, partial curve] | –
COc1ccc(-c2nc3c(c(=O)[nH]c(=O)n3Cc3ccccc3)n2Cc2ccccc2)cc1 | inactive | –
Cc1cc(C)nc(Nc2n[nH]c(COc3ccc(Cl)cc3)n2)n1 | inconclusive [activator, single point] | –
COc1cc(C(O)c2nc(-c3ccc4ccccc4c3)cs2)ccc1F (stereo not given) | inactive | –
Cc1cccc(-c2csc(N)c2C(=O)OC(C)C)c1 | inactive | –
COc1ccccc1CNC(=O)C(NC(=O)c1ccc(C)cc1)C(C)C (stereo not given) | inconclusive [activator, single point] | –
Cc1cccc(-c2nnc(SCC3CNC(=O)O3)n2-c2ccc(Cl)cc2)c1 (stereo not given) | inactive | –
CCOC(=O)c1sc(NC(=O)CN(CC)CC)c(C(=O)OCC)c1C | inactive | –
CC(=O)N1N=C(c2ccccc2)CC1c1cn(C)c2ccccc12 (stereo not given) | inactive | –
COc1ccc(CNC(=O)COc2cc(O)c3c(c2)OC(C)(C)CC3=O)c(OC)c1 | inconclusive [activator, single point] | –
O=c1[nH]c2cc([N+](=O)[O-])ccc2c2cc(Br)ccc12 | inconclusive [activator, single point] | –
CC(C)C[C@@H](COCc1cccc(Cl)c1)N1CCN(C(=O)c2ccc(C(F)(F)F)cc2)CCC1=O | inconclusive [activator, single point] | –
CCOc1ccc2ncc(S(=O)(=O)c3ccc(C)cc3)c(N3CCC4(CC3)OCCO4)c2c1 | inconclusive [activator, single point] | –
CN(C)CC(=O)c1c[nH]c2ccccc12 | inconclusive [activator, single point] | –
COC(=O)[C@@H](N)Cc1ccc(O)c(O)c1 | inconclusive [activator, single point] | –
CC(=O)Nc1ccccc1NC(=O)COc1cccc2ccccc12 | inconclusive [activator, single point] | –
CC1(C)CC(=O)C(C=NCCCN2CCCC2=O)=C(O)C1 | inactive | –
CCCCC(c1nnnn1Cc1ccco1)N1CCN(c2nc3ccccc3s2)CC1 (stereo not given) | inconclusive [activator, partial curve] | –
OC(c1ccc(Cl)c(Cl)c1)c1ncc(-c2ccccc2Cl)[nH]1 (stereo not given) | inconclusive [activator, single point] | –
O=C(COc1ccc(Br)cc1)N(Cc1nnc(-c2ccccc2Cl)o1)C1CC1 | inconclusive [activator, single point] | –

Compound | Potency | growth rescue (activation)
C=CCOC(=O)Nc1nc(CCNC(=O)OCc2ccccc2)c(C(=O)O)s1 | inactive | –
NNC(=O)c1cc(-c2cccs2)nc2ccccc12 | inactive | –
CCCc1nc(SCC(=O)c2ccccc2)c2c(=O)n(C)c(=O)n(C)c2n1 | inconclusive [activator, single point] | –
Cc1nc(S(=O)(=O)c2cccc(Cl)c2)nc2c1CCC2 | – | inconclusive: -33.2% [activator]
CCn1nc(NC(=O)c2ccncc2)c2cc3ccccc3nc21 | inconclusive [activator, single point] | –
Cc1c(CC(=O)NCCCO)c(=O)oc2cc3c(cc12)CCC(C)(C)O3 | inconclusive [activator, single point] | –
O=C(O)CCCCCCCCCCP(=O)(c1ccccc1)c1ccccc1 | inconclusive [activator, single point] | –
COc1ccc(-n2c(SCC(=O)N3CCCCC3C)nnc2-c2cccnc2)cc1 (stereo not given) | inconclusive [activator, single point] | –
COc1ccc(-c2cn3c(C)c(C(=O)N4CCCc5ccccc54)sc3n2)cc1 | active: 20 µM | –
CC(=O)Nc1c(C(=O)O)ccc(C)c1OCc1ccccc1 | inconclusive [activator, partial curve, poor fit] | –
CCOC(=O)C1(Cc2ccccc2)CCCN(C(=O)c2cn[nH]c2)C1 (stereo not given) | inconclusive [activator, single point] | –
CCOc1nc(NC2CCCC2)nc(N2CCC(C)CC2)n1 | inactive | –
COc1ccc(NC(=O)C2Cc3c(-c4cccc(F)c4)ccnc3O2)cc1 (stereo not given) | inconclusive [activator, single point] | –
CC(c1ccccc1)n1c(CO)nc2ccccc21 (stereo not given) | inactive | –
COc1ccc(N(CC(=O)N2CCN(c3ccccc3)CC2)S(=O)(=O)c2c(C)noc2C)cc1 | inconclusive [activator, single point] | –
N#Cc1ccc(C(=O)N(Cc2ccco2)Cc2cccs2)cc1 | inactive | –
CC(=NNC(=O)c1ccncc1)c1ccccc1O | inconclusive [activator, single point] | –
O=C(Nc1ccccc1)C1Cc2c(-c3ccco3)ccnc2O1 (stereo not given) | inconclusive [activator, single point] | –
O=C(CSc1cccc[n+]1[O-])c1ccc(Cl)s1 | inconclusive [activator, single point] | –
COc1ccc(N2CCN(S(=O)(=O)c3cc(-c4cc(C)no4)ccc3C(C)C)CC2)cc1 | inconclusive [activator, single point] | –
CN1CCc2nc(NC(=O)c3cccc(S(=O)(=O)N4CCc5ccccc54)c3)sc2C1 | inconclusive [activator, single point] | –
CC(C)Cn1c(N)c(C(=O)COC(=O)c2ccc(Cl)cc2)c(=O)n(C)c1=O | inactive | –
